Measurements published in patent US11365205B2 (Aurigene Discovery Technologies Limited, priority 2018, dated 2022).

Biological target: PRMT5/MEP50 Complex (Homo sapiens (Human), UniProt O14744)
Assay: PRMT5 inhibition based on TR-FRET assay
Type: biochemical
Conditions: 32 nM PRMT5:MEP50, 50 nM Histone-H4 peptide, 1 μM SAM
Source text: PRMT5 Inhibition Based on TR-FRET Assay:
Protein arginine methyltransferase 5 (PRMT5) is a type II arginine methyltransferase that catalyze mono- and symmetric demethylation on arginine residues of histone or non-histone proteins in presence of S-adenosylmethionine (AdoMet or SAM) a cofactor responsible for donating the methyl group. PRMT5 is reported to be overexpressed in several human cancers. To identify compounds that inhibit the PRMT5 and decrease its activity, a TR-FRET based assay has been established. Time-resolved fluorescence resonance energy transfer (TR-FRET) HTS assays are homogeneous proximity assays where the interaction of two dye-labeled binding partners is detected by the energy transfer between a donor and an acceptor dye and the subsequent light emission by the acceptor dye. PRMT5 catalyzes Histone H4 peptide which is biotin tagged to the Lysine amino acid at carboxyl end, in presence of S-adenosyl-1-methionine (SAM) to methylate the peptide. The antibody specific to mono methylated H4 peptide (H4R3) with Ig conjugate binds to the methylated peptide, indirectly binding to the Europium lanthanide. […]
The compound dilutions were prepared as 7.5% DMSO stock solutions in assay buffer. […] The plates were then read on Victor-3 with Excitation at 340 nm and Emissions collected at 615 and 665 nm in TR-FRET protocol. […]

Chain of UniProt O14744 (O14744 whole entry): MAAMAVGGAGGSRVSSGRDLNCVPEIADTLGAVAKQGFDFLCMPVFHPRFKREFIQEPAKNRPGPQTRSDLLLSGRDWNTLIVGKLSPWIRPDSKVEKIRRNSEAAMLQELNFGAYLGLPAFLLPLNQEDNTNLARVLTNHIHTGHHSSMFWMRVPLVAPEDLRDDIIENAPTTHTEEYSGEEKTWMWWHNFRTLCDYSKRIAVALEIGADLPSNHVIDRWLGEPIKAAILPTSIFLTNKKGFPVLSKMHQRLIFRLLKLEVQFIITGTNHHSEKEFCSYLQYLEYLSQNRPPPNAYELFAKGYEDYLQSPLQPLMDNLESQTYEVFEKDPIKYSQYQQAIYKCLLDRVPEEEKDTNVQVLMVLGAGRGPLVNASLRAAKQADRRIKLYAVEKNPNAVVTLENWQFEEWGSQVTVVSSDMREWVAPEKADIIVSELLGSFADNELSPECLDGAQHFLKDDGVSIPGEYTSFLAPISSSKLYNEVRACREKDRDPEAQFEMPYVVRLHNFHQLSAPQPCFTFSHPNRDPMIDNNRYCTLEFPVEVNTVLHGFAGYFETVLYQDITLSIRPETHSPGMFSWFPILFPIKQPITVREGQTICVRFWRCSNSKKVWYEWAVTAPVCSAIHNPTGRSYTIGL
Chain of UniProt O14744 (Q9BQA1 whole entry partner): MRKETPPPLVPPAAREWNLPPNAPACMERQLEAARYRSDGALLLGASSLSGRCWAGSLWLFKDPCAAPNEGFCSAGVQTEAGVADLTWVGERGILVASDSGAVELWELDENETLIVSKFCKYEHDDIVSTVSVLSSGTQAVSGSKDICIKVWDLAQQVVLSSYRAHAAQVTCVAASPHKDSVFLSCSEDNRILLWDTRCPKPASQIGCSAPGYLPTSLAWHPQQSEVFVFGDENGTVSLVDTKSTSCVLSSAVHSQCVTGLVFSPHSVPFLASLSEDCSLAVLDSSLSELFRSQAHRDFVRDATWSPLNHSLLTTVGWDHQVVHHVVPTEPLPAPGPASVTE

SMILES | IC50 [µM]
N#Cc1ccc(Cn2c(=O)n(CC(O)CN3CCc4ccccc4C3)c3ncccc32)nc1 (centres unmarked) [Example 99, 6-((3-(3-(3,4-dihydroisoquinolin-2(1H)-yl)-2-hydroxypropyl)-2-oxo-2,3-dihydro-1H-imidazo[4,5-b]pyridin-1-yl)methyl)nicotinonitrile] | 0.21
N#Cc1ccc(CN2C(=O)N(CC(O)CN3CCc4ccccc4C3)[C@@H]3CCCC[C@@H]32)cc1 (stereo partly drawn) [Example 101, 4-(((3aR,7aS)-3-(3-(3,4-dihydroisoquinolin-2(1H)-yl)-2-hydroxypropyl)-2-oxooctahydro-1H-benzo[d]imidazol-1-yl)methyl)benzonitrile] | 0.08
